Measurements from the supplement of paper PMC4604168 (melanoma cell lines).
The list shows a part of the results. Many values rest on one well or one pass, so single values are uncertain.

Test system: WM1745
Assay: cell count relative to DMSO control; melanoma cells; higher = more viable cells
Details: library dose: low library concentration; 72 h
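Also: cell number obtained by counting DAPI-stained nuclei in high-throughput microscope images with image analysis software, screen run in 1,536-well plates.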

Which cell count does the source give for Cc1cc(N2CCOCC2)cc2[nH]c(-c3c(NC[C@@H](O)c4cccc(Cl)c4)cc[nH]c3=O)nc12 + CCc1ccc(CCOc2ccc(CC3SC(=O)NC3=O)cc2)nc1 [pioglitazone] (first compound 0.2 µM, partner dose 2 µM) here?
The cell count was 76.2%.

Which cell count does the source give for O=C(O)c1ccc2c(c1)nc(Nc1cccc(Cl)c1)c1ccncc12 + COCC[n+]1c2c(n(Cc3cnccn3)c1C)C(=O)c1ccccc1C2=O [YM155] (first compound 0.4 µM, partner dose 0.0004 µM) here?
Its cell count is 116%.

How did the cell count turn out when O=C(O)[C@@H]1[O][Sb](=[O])([O][Sb]2(=[O])[O][C@H]([C@H](O)CO)[C@H](O)[C@H](C(=O)O)[O]2)[O][C@H]([C@H](O)CO)[C@@H]1O (stereo partly specified) [stibogluconate] + CCc1ccc(CCOc2ccc(CC3SC(=O)NC3=O)cc2)nc1 [pioglitazone] (first compound 2 µM, partner dose 2 µM) was run?
Its cell count is 95.2%.

With O=C(Nc1cc(C(F)(F)F)cc(C(F)(F)F)c1)c1cc(Cl)ccc1O + O=S(=O)(c1ccccc1)N(CC(F)(F)F)c1ccc(C(O)(C(F)(F)F)C(F)(F)F)cc1 [T0901317] (first compound 0.016 µM, partner dose 1.4 µM) as the compound, how does the cell count read?
The cell count was 81.9%.

With O=C(Nc1cc(C(F)(F)F)cc(C(F)(F)F)c1)c1cc(Cl)ccc1O + CCCCCCCCc1ccc(CCC(N)(CO)CO)cc1 [fingolimod] (first compound 0.016 µM, partner dose 2 µM) as the compound, how does the cell count read?
The cell count was 119%.

Which cell count does the source give for O=C(Nc1cc(C(F)(F)F)cc(C(F)(F)F)c1)c1cc(Cl)ccc1O + O=C(Nc1cccc(Cl)c1)Nc1ncc(CCNc2ncnc3ccsc23)s1 [SNS314] (first compound 0.016 µM, partner dose 0.0008 µM) here?
Its cell count is 91.5%.
